# From the supplement of paper PMC5499739
# Whole data set: some 16,000 sequences, median “Z-score” near -0.37, cut for the highest 2% near 3.2. Some of the results follow.
# System: RBM10 RRM1-ZnF (GST-tagged construct)
# Test: RNAcompete 7-mer binding Z-score; higher = stronger binding preference
# Protocol: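 RNAcompete: 20 pmol GST-tagged RBM10 RNA-binding constructs were incubated with a designed RNA pool of about 241,000 sequences up to 41 nt (1.5 nmol) on glutathione beads for 30 min at 4 °C and washed. Bound RNAs were identified by microarray hybridisation. Each RNA 7-mer is scored by a one-sided Z-score of its enrichment, computed over probes that contain the 7-mer within longer pool sequences.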
row,Sequence,RNAcompete 7-mer binding Z-score
1,AUUAGGG,2.33
2,CAACCAG,-0.168
3,ACAGCCC,-0.529
4,CAGGGCA,2.06
5,CCCAUAG,-0.681
6,ACUGUUC,-0.821
7,CGUGCGU,-0.103
8,ACAAGGG,2.96
9,CCCCUUU,-0.733
10,UGUAGUC,-0.292
11,GGACUGC,0.361
12,UUUAUUA,-0.581
13,GCCCAUA,-0.805
14,ACUAGAA,0.0203
15,UCCCGGG,0.166
16,CCGGCCG,-0.555
17,GUAAACU,-0.123
18,GAUUACA,0.056
19,CGCCCAU,-0.737
20,AAAGAUU,-0.288
21,AUAUCAA,-0.464
22,UAUGACC,-0.604
23,CUCUUGC,-0.831
24,CGUCGAC,-0.454
25,GCUGGGG,2.64

row,Sequence,RNAcompete 7-mer binding Z-score
1,CUCGCGC,-0.668
2,GCCAGCC,-0.467
3,GUUCGAA,-0.175
4,GUCAUGA,0.03
5,GAAUUAC,-0.34
6,UCUUUAU,-0.759
7,UUUAAGU,-0.578
8,ACCAAAA,-0.613
9,UUUACGA,-0.659
10,GGGCUGG,2.44
11,GCGAGCU,0.215
12,UUGGCGU,0.251
13,GUCUACC,-0.649
14,UUCUGUC,-0.87
15,UUCGUUA,-0.873
16,AAUGAUC,-0.506
17,GGCGUCC,-0.158
18,GUGAUUU,-0.272
19,ACCCUUA,-0.954
20,AUCGCCU,-0.919
21,CUAAGCA,-0.578
22,GCUUAGA,-0.376
23,GGCUGUU,-0.0544
24,GUAUGUG,1.07
25,AGAAUAA,-0.305

row,Sequence,RNAcompete 7-mer binding Z-score
1,AGCCGCC,-0.435
2,UAAUAGA,-0.119
3,GAAACGA,0.121
4,AAUCCGU,-0.815
5,UUUAAUU,-0.568
6,CUUCCGU,-0.733
7,AGGAACA,0.569
8,UUAAGUA,-0.331
9,CGAGCCG,-0.331
10,UACGGUU,0.404
11,AGGCGCG,0.322
12,CUUGAAU,-0.655
13,CUCGUGA,-0.581
14,ACAUAGC,-0.301
15,ACCCCAA,-0.418
16,UCCGAUU,-0.75
17,GAGAUAU,0.465
18,UGUGGGC,2.06
19,UCCUCGG,-0.337
20,AAACUUC,-0.678
21,GUAAUUU,-0.396
22,AGUAGAA,0.998
23,GAUGACC,-0.149
24,AGCGGAC,1.16
25,AUACUGU,-0.681

row,Sequence,RNAcompete 7-mer binding Z-score
1,UAUGCCA,-0.646
2,AUUCAUA,-0.548
3,UGGUCCC,-0.171
4,AAAGCCC,-0.675
5,ACUAAUG,-0.24
6,UUAAUCA,-0.555
7,UCGGAAG,0.465
8,UUUCCAA,-0.847
9,AUGCCCG,-0.36
10,CUGAUUG,-0.223
11,GGUGACC,0.469
12,CCCGAGG,0.384
13,ACCAGUU,-0.655
14,UAUCCUG,-0.857
15,CUUCGUC,-0.854
16,GUACUUA,-0.422
17,AAAGAAA,0.017
18,GCAAUUG,0.0625
19,AUAAUUG,-0.311
20,UGAACGA,0.0853
21,AAAUUCA,-0.668
22,UUGGUCG,0.215
23,GCCCAGA,-0.535
24,GAUGCAC,-0.155
25,CUAUUAU,-0.776

row,Sequence,RNAcompete 7-mer binding Z-score
1,GCUAUAC,-0.545
2,GAUCGUU,-0.405
3,ACGUUGG,0.582
4,GUAUGCG,0.641
5,GGGGUCC,1.67
6,UGUCGUU,-0.496
7,CUGGCCU,-0.685
8,AAUGGAA,3.35
9,CGCGAAG,-0.373
10,UUCGAAU,-0.743
11,CGAACCG,-0.461
12,GAGAUGA,1.03
13,UCCACGG,-0.113
14,ACUCGUU,-0.756
15,CUUCAUC,-0.792
16,UCCCUCU,-0.714
17,CAUAAAG,-0.474
18,AUCAGUA,-0.233
19,UUAGCGG,0.192
20,CGGGAGC,1.5
21,CUACAAC,-0.668
22,GUCGGUC,-0.214
23,ACGGGCG,1.43
24,UCUUCAU,-0.782
25,GCGCCUU,-0.678

row,Sequence,RNAcompete 7-mer binding Z-score
1,GGCCAGA,-0.00246
2,GGCCGGG,1.35
3,UCCUACC,-0.753
4,AAAAGCU,-0.396
5,UGGGCCU,0.335
6,UUCUGUU,-0.633
7,AUCGAGA,0.0788
8,UAGGUAU,1.04
9,AGCAAAG,0.774
10,AUCUGAA,-0.62
11,GCUUGAC,-0.467
12,CUCAUGA,-0.675
13,ACUGCAU,-0.539
14,GGCGGGU,2.9
15,AGCUUUA,-0.613
16,UUGCUCC,-0.591
17,ACUUUUG,-0.863
18,CCUAAUG,-0.604
19,UAAGGAA,1.64
20,CUUGACA,-0.733
21,CCUAUCG,-0.876
22,AGUCCGA,-0.685
23,CCAGCAA,-0.617
24,GCAUUCG,-0.444
25,CCUCUAC,-0.772

row,Sequence,RNAcompete 7-mer binding Z-score
1,UCUGGUC,-0.461
2,AUUGUUU,-0.535
3,AUUUACA,-0.675
4,GGCCAUC,-0.584
5,GGACAUU,0.335
6,UUACUGC,-0.779
7,UGACGCC,-0.353
8,CGUUCGG,-0.285
9,AAAAGCC,-0.681
10,CAGGUUU,0.56
11,CAACAAU,-0.61
12,GGAAGAC,1.97
13,AGCUGUC,-0.802
14,AGGGCGA,2.39
15,CUAUCUC,-0.802
16,GGGUUAG,4.38
17,UGAAUCC,-0.516
18,GCUCUAU,-0.652
19,CGCUUAG,-0.6
20,GCGAGGU,2.06
21,AAACCUU,-0.984
22,GAGGUCC,-0.103
23,UGAAGUU,-0.0414
24,UGAUCCA,-0.694
25,AGGUGCG,1.97

row,Sequence,RNAcompete 7-mer binding Z-score
1,UUGUUAA,-0.578
2,GGUCCCU,-0.334
3,AGGAAUC,-0.0739
4,CAAGCGA,0.0788
5,UAGCUAU,-0.574
6,GCUAACU,-0.331
7,AGCCAUC,-0.75
8,CUAAUGA,-0.448
9,CAGCGCC,-0.48
10,UAUACCA,-0.655
11,GUCUUGC,-0.763
12,CCGUUCA,-0.785
13,ACUUGCG,-0.678
14,AUUAUUG,-0.405
15,UUGUCAA,-0.591
16,UGGGCCC,0.332
17,CGUCCCG,-0.594
18,CUCCGCU,-0.652
19,UUUAUGU,-0.386
20,GAUAGAC,0.069
21,CAUACCG,-0.72
22,UUUGCGU,-0.642
23,UAUACGA,-0.412
24,GUAAAUC,-0.386
25,AUGCUAU,-0.474

row,Sequence,RNAcompete 7-mer binding Z-score
1,UGUGCGC,-0.00896
2,CAAUGCU,-0.607
3,ACGUGUU,-0.389
4,GAGCUCC,-0.47
5,AAAUCAG,-0.36
6,GAUAGGU,2.94
7,UGAAAGC,-0.0577
8,GAUACCC,-0.487
9,CAUAGGC,-0.305
10,AUCCGCG,-0.626
11,AAAUAGG,1.07
12,GAUACCA,-0.451
13,GGUAUGC,1.48
14,AAAUACA,-0.275
15,UUGGUAU,0.647
16,AAAUACU,-0.587
17,ACCGAGU,-0.642
18,GACAACG,0.102
19,ACUGUGC,-0.535
20,GCAAGAA,0.27
21,CUCGGAU,-0.184
22,GUUAGUG,1.03
23,GUCCGCC,-0.662
24,UGAGAUC,-0.36
25,CUCAGCU,-0.707

row,Sequence,RNAcompete 7-mer binding Z-score
1,GGACGAG,2.1
2,UUAUUAU,-0.444
3,CGCACAU,-0.535
4,GCCCGCA,-0.451
5,UUGACUU,-0.698
6,AGACUGU,-0.61
7,GCUUGUG,-0.415
8,AGGGAUC,1.02
9,GAAUUGU,0.199
10,CUCCGAA,-0.659
11,AGCCCGG,-0.366
12,GGUCUAC,-0.22
13,CGCCUGA,-0.584
14,AUGUUAG,0.153
15,CAUGGGA,1.95
16,GUUGGCG,1.47
17,CGGUAAG,1.26
18,GUAAGUA,0.368
19,ACUCUCU,-0.808
20,CGCCUUA,-0.954
21,GUCUCCC,-0.288
22,CUGAGCA,-0.262
23,GUCGACA,-0.236
24,AAUUGUG,0.137
25,UCCCAUA,-0.863

row,Sequence,RNAcompete 7-mer binding Z-score
1,AGCCAGA,-0.422
2,UUGUCAC,-0.597
3,AGUAUGA,0.215
4,CUAAUAG,-0.402
5,UAAUGCC,-0.766
6,AUUGCCC,-0.802
7,UAAAGAA,-0.0187
8,CCGUGUA,-0.246
9,AUUUCUG,-0.763
10,CAUCUUC,-0.997
11,UCCCAAA,-0.779
12,CCCGGUU,-0.477
13,CACUGAC,-0.474
14,AAUCUGG,-0.227
15,ACCUCGA,-0.62
16,GCUGAAC,-0.223
17,CGUGGUG,1.52
18,GUUGUGU,0.222
19,GUCUGGU,0.111
20,GAGCACC,-0.175
21,UCAGAAU,-0.487
22,AGACCGG,-0.321
23,CUGUAGC,-0.535
24,AGACUAU,-0.72
25,ACUGCCG,-0.574

row,Sequence,RNAcompete 7-mer binding Z-score
1,UCCCCCC,-0.188
2,GACCUCG,-0.691
3,GAGCUCG,-0.266
4,CAUUAGC,-0.646
5,GCUUUGA,-0.698
6,UUACAGU,-0.223
7,ACAUAUC,-0.636
8,ACCACAG,-0.314
9,GGCAUUU,-0.474
10,AGGUCUC,-0.5
11,GGGGAAG,4.31
12,UUGUAUU,-0.61
13,GGUAUUA,1.25
14,ACUUCGU,-0.73
15,UGCCUCG,-0.428
16,GAGCCGA,-0.503
17,GAUUAAC,-0.201
18,ACCUUGU,-0.798
19,CCUUCUU,-0.72
20,AGAACAU,-0.402
21,GCAUUUG,-0.477
22,GAUGCUC,-0.399
23,CGCGGCG,1.25
24,CGUAAGU,-0.392
25,GCACGGU,0.313

row,Sequence,RNAcompete 7-mer binding Z-score
1,AGAAAGA,0.495
2,UCGCUGU,-0.571
3,UAGCCUU,-0.746
4,GCGUGGG,3.53
5,UUGGUGC,1.53
6,CAGGGUA,2.99
7,GGACAUG,1.76
8,GUCUAAU,-0.422
9,GUACGCA,-0.266
10,CAGACGC,-0.49
11,UGUCUUA,-0.688
12,AUCCCUG,-0.779
13,AGCGUAA,0.144
14,CCCCCAA,-0.415
15,ACUUCCG,-0.795
16,GACUUCU,-0.938
17,GGUGUCU,0.66
18,ACUCAAG,-0.249
19,CUAGACC,-0.655
20,GUCCAUU,-0.818
21,CUCCCCC,-0.295
22,CCGUAAG,-0.694
23,UACUCCA,-0.776
24,CUACGGU,-0.262
25,ACACAGC,-0.412

row,Sequence,RNAcompete 7-mer binding Z-score
1,ACAUCAC,-0.617
2,CCUGCGC,-0.568
3,CAUGAGU,-0.0414
4,AUCUCCA,-0.828
5,AGUUCAC,-0.668
6,AUGACGA,0.209
7,CUGUUCC,-0.841
8,GAGCGUC,-0.311
9,UGGGUGA,3.38
10,UCUAAUA,-0.561
11,GGUCCUC,-0.243
12,AAGGGCC,1.01
13,AAGAGCG,0.836
14,CCAACGC,-0.535
15,GGUAAGU,1.61
16,GUGUCAU,-0.259
17,CGGGCCU,-0.24
18,GGUGGUC,2.06
19,GCUUUGU,-0.522
20,AGAUUGU,-0.0739
21,CUCGCUU,-0.704
22,AGAUUGC,-0.444
23,CUAUGUC,-0.795
24,AAUAUGU,-0.223
25,CACAGAA,-0.36

row,Sequence,RNAcompete 7-mer binding Z-score
1,GAGAUGG,3.54
2,CCUAUGU,-0.759
3,CUUAAGA,-0.626
4,UAUGUGA,0.118
5,GCACUCG,-0.34
6,UAUCCCC,-0.652
7,ACAUAAA,-0.584
8,ACUCGCA,-0.678
9,CUUAUCG,-0.688
10,UCAACAC,-0.461
11,UGAUGCC,-0.558
12,CGUGCAC,-0.236
13,GCAAGUG,0.852
14,GUAAACG,0.465
15,AGCGUAC,-0.415
16,GUGUCAC,-0.308
17,CGCGUGU,-0.366
